# Data from article PMC12491506.
# These are yes or no findings as the source states them, for the method shown. In cells and extracts the contact can be indirect. Some binding calls cover weakened binding; strength is not graded here. Tags and fused reporters may be left off the sequences shown.
# T1: GFP-RAB32 (UniProt Q13637)
# T1 sequence: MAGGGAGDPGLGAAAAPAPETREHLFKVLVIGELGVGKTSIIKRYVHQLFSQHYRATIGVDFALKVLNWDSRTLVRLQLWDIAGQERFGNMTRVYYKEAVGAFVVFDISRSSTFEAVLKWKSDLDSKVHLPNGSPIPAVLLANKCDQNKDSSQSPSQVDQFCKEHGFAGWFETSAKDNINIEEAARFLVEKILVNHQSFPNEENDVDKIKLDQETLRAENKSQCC
# T2: GFP-RAB32 Q85L (UniProt Q13637)
# T2 sequence: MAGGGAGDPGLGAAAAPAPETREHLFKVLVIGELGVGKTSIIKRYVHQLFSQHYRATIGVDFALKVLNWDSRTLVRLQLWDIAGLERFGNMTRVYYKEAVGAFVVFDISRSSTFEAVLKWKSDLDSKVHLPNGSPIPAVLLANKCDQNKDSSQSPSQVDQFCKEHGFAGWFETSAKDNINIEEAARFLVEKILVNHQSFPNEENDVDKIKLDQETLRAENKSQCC
# T3: GFP-RAB32 T39N (UniProt Q13637)
# T3 sequence: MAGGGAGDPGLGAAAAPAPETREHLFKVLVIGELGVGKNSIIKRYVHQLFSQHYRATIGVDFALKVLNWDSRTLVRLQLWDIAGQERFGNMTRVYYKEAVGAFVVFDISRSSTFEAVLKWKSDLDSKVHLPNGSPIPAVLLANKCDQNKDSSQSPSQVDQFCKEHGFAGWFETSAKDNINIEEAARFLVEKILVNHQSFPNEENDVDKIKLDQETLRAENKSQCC
# T4: GFP-LRMDA (human), A0A087
# T4 chain: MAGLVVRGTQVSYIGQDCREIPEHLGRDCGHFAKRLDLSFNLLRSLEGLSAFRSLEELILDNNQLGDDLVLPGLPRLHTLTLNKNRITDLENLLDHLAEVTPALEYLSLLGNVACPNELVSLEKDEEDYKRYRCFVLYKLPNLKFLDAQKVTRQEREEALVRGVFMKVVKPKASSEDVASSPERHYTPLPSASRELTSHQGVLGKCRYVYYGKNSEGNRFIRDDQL
# T5: GFP-LRMDA F145D (human)
# T5 sequence: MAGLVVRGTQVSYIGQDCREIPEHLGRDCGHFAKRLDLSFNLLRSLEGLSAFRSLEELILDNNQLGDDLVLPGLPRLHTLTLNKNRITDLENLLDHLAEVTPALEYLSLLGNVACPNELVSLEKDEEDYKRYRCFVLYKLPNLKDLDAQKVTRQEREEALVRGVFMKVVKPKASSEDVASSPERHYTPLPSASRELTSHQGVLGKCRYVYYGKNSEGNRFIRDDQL
# How the values were obtained:
# GFP-RAB32 = target: T1, GFP-RAB32; assay: co-IP; GFP-trap from lysates of HEK293T cells with mCherry-LRMDA and VPS35L-GFP or GFP-RAB32 (wild type or mutants), blots for mCherry-LRMDA and Retriever (Figs 2E, 3C, 3D)
# GFP-RAB32 Q85L = target: T2, GFP-RAB32 Q85L; assay: as above
# GFP-RAB32 T39N = target: T3, GFP-RAB32 T39N; assay: as above
# [1] = target: T4, GFP-LRMDA (human), A0A087; assay: co-IP; GFP-LRMDA pull-down performed in MNT1 cells (Supplementary Fig. 1H); settings: remark: other sources report otherwise
# GFP-LRMDA F145D (human) = target: T5, GFP-LRMDA F145D (human); assay: as above
binder,measurement,setting,value
"mCherry-LRMDA (protein, UniProt A0A087WWI0 1-226) MAGLVVRGTQVSYIGQDCREIPEHLGRDCGHFAKRLDLSFNLLRSLEGLSAFRSLEELILDNNQLGDDLVLPGLPRLHTLTLNKNRITDLENLLDHLAEVTPALEYLSLLGNVACPNELVSLEKDEEDYKRYRCFVLYKLPNLKFLDAQKVTRQEREEALVRGVFMKVVKPKASSEDVASSPERHYTPLPSASRELTSHQGVLGKCRYVYYGKNSEGNRFIRDDQL",binding,GFP-RAB32,binds
same,binding,GFP-RAB32 Q85L,binds
same,binding,GFP-RAB32 T39N,no binding
"RAB38 (endogenous, MNT1 cells), P57729 1-211 (protein) MQAPHKEHLYKLLVIGDLGVGKTSIIKRYVHQNFSSHYRATIGVDFALKVLHWDPETVVRLQLWDIAGQERFGNMTRVYYREAMGAFIVFDVTRPATFEAVAKWKNDLDSKLSLPNGKPVSVVLLANKCDQGKDVLMNNGLKMDQFCKEHGFVGWFETSAKENINIDEASRCLVKHILANECDLMESIEPDVVKPHLTSTKVASCSGCAKS",binding,[1],binds
"RAB38 (endogenous, MNT1 cells) (protein, UniProt P57729 1-211) MQAPHKEHLYKLLVIGDLGVGKTSIIKRYVHQNFSSHYRATIGVDFALKVLHWDPETVVRLQLWDIAGQERFGNMTRVYYREAMGAFIVFDVTRPATFEAVAKWKNDLDSKLSLPNGKPVSVVLLANKCDQGKDVLMNNGLKMDQFCKEHGFVGWFETSAKENINIDEASRCLVKHILANECDLMESIEPDVVKPHLTSTKVASCSGCAKS",binding,GFP-LRMDA F145D (human),no binding
